Test results: PubChem BioAssay AID1159614 (National Center for Advancing Translational Sciences (NCATS), 2016)
Among all 45,000 compounds or so, about 65 (0.1%) were called active. The call rests on the fitted dose curve; in most records, active means well fitted activation curve with a large enough effect; inconclusive means small, poorly fitted or top-dose-only effect; inactive means no such curve, though single readings can be large or run the other way. This is one part of the list.

biological target: Galactocerebrosidase (Homo sapiens) (UniProt P54803); assay: A Novel Cell-Based Assay to Identify Small Molecules for B -Galactocerebrosidase; conditions: 145M-Twi-hGALC-G270D cells (Twitcher mouse brain line with human GALC G270D), HMU-beta-Gal fluorescence, 48 h; series mostly up to 57.5 µM; activation: at the top concentration; further: 0% is about no effect; nearly all actives have a fitted effect of over 65% in size
UniProt P54803, sequence (P54803 whole entry, looked up): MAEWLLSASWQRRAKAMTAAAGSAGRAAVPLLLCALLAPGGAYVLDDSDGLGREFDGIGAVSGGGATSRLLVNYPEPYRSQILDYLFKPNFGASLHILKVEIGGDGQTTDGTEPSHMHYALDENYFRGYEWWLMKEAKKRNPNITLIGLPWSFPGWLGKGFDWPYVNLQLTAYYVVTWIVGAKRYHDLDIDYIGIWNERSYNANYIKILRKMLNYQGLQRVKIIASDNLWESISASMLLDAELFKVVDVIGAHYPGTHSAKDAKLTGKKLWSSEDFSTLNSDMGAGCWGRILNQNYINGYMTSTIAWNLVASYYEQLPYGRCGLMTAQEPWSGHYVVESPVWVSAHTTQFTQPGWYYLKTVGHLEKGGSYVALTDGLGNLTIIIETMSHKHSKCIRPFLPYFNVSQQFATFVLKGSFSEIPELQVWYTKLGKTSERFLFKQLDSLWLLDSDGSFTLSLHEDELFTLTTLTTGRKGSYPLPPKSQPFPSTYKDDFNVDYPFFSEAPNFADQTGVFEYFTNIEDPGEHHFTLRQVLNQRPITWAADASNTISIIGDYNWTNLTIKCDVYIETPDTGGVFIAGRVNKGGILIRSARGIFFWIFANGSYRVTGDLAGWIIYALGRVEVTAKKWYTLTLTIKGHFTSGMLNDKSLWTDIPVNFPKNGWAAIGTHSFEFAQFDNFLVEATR
Summary of the method: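 Fluorescence readout: HMU-β-gal cleavage by mutant GALC (0.1 mM final, citrate/phosphate pH 5.2 with 1 mg/mL taurocholate), stopped with carbonate/bicarbonate plus Triton X-100. Cells: murine Twitcher 145M-Twi expressing human G270D GALC; qHTS for activators.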

activation, inactive:
COC(=O)c1ccc(NC(=O)C2CCN(c3ncnc4c3nc3n4CCCCC3)CC2)cc1 -0.541%
COc1cccc(-c2nc(CS(=O)(=O)CC(=O)Nc3cccc(C(C)=O)c3)c(C)o2)c1 -18.8%
COc1cc(CN(C(=O)c2ccc(OC(C)C)cc2)c2ccccn2)cc(OC)c1OC -37.4%
COc1ccc(CCNc2ncnc3c2c(-c2ccccc2)cn3-c2ccc(Cl)cc2)cc1OC 9.43%
CCCCc1ccc(C(=O)Nc2ccc3nc(N4CCN(CC)CC4)cc(C)c3c2)cc1 -17.1%
COc1ccc(C)cc1NC(=O)c1cc(S(=O)(=O)N2CCC(C)CC2)ccc1F -8.06%
CCOC(=O)c1ccccc1NC(=O)CSc1nnc(CC)n2c1cc1occc12 -11.6%
Fc1ccc(-c2cc3ncc4c(n3n2)-c2cc(Cl)ccc2OC4)cc1 -15.3%
O=C(O)CNC(=O)c1ccccc1 -6.41%
Cc1cc(Nc2nc3ccccc3c3nnc(C)n23)ccc1Br -2.29%
Cc1cc(C)cc(NC(=O)CSc2c(C(C)C)cnc3c2c(=O)n(C)c(=O)n3C)c1 -14.8%
Cc1cc(C)cc(Nc2cc(C(=O)NC3CCCCC3)c3ccccc3n2)c1 22.9%
Cc1ccc(CNC(=O)CSc2c(C)cnc3c2c(=O)n(C)c(=O)n3C)cc1 -7.06%
CCOC(=O)N1CCc2c(sc3c2c(=O)n(-c2ccc(CC)cc2)c(=O)n3Cc2cccc(Cl)c2)C1 -9.88%
CCC1CN(C(=O)N2CCC(C(=O)NCCc3ccc(OC)c(OC)c3)CC2)c2ccccc2O1 (stereo unspecified) -15.4%
Cc1ccc(C)c(N2CCN(C(=O)C3CCC(CNS(=O)(=O)c4cccs4)CC3)CC2)c1 (stereo unspecified) -11.4%
CCc1cccc(NC(=O)Cn2c(=O)n(CCCCCC(=O)NCc3ccc(F)cc3)c(=O)c3sccc32)c1 1.9%
Cc1ccc(NC(=O)CN2C(=O)C(c3ccc(F)cc3)=NC23CCCCCC3)c(C)c1 -7.34%
CCCCOc1ccc(C2C(=O)N(C3CCCCC3)CC(=O)N2C2CCCCC2)cc1 (stereo unspecified) -11.8%
Cc1ccc(NC(=O)C2CCN(S(=O)(=O)c3cccc4nsnc34)CC2)cc1 -15.3%
CCn1cc(C(=O)OCC(=O)Nc2cc(Cl)ccc2C)c(=O)c2ccc(C)nc21 -16.1%
Cc1ccc(C)c(N2CCN(C(=O)c3cc4cc5ccc(C)cc5nc4o3)CC2)c1 -8.15%
CC1CCN(S(=O)(=O)c2ccc3nc(NCc4ccc(N(C)C)cc4)ccc3c2)CC1 -8.19%
CCCCCCc1c(C)c2c(cc(C)c3c(C)coc32)oc1=O -24.1%
Cc1ccc(C)c(NC(=O)Cn2ncc3c(C)n(Cc4ccc(F)cc4)c(C)c3c2=O)c1 -9.82%
COc1ccc(C2C=C(c3ccccc3)Nc3nc(NC(C)=O)nn32)cc1 (stereo unspecified) -4.44%
